From the supplement of paper PMC11741623
This is one part of the list. Interaction screen of human proteins with wild-type SARS-CoV-2 proteins by split-DHFR complementation in yeast, 1 µg/mL methotrexate. Value = fitness of the pair (three or more lineages) minus that of the viral protein without a human partner, on a scale set by negative (0) and fused positive (1) controls, mean of up to three cultures; higher = more likely to interact. Active = false discovery rate below 0.05 (one-sided t-test) in at least one culture. Nearly all pairs are not hits, and differences among them are mostly noise (correlation between cultures about 0.3); most hits were seen in one culture only. Human sequences are the Swiss-Prot entries looked up by gene name; the clone may be another isoform. NSP2 values were corrected by the authors for a growth advantage. Listed are human proteins with a hit and a random twelfth of the others.

B1: NANOS3, P60323 (protein)
chain: MGTFDLWTDYLGLAHLVRALSGKEGPETRLSPQPEPEPMLEPDQKRSLESSPAPERLCSFCKHNGESRAIYQSHVLKDEAGRVLCPILRDYVCPQCGATRERAHTRRFCPLTGQGYTSVYSHTTRNSAGKKLVRPDKAKTQDTGHRRGGGGGAGFRGAGKSEPSPSCSPSMST
B2: NEUROG1, Q92886 (protein)
chain: MPARLETCISDLDCASSSGSDLSGFLTDEEDCARLQQAASASGPPAPARRGAPNISRASEVPGAQDDEQERRRRRGRTRVRSEALLHSLRRSRRVKANDRERNRMHNLNAALDALRSVLPSFPDDTKLTKIETLRFAYNYIWALAETLRLADQGLPGGGARERLLPPQCVPCLPGPPSPASDAESWGSGAAAASPLSDPSSPAASEDFTYRPGDPVFSFPSLPKDLLHTTPCFIPYH
B3: CD79B, P40259 (protein)
chain: MARLALSPVPSHWMVALLLLLSAEPVPAARSEDRYRNPKGSACSRIWQSPRFIARKRGFTVKMHCYMNSASGNVSWLWKQEMDENPQQLKLEKGRMEESQNESLATLTIQGIRFEDNGIYFCQQKCNNTSEVYQGCGTELRVMGFSTLAQLKQRNTLKDGIIMIQTLLIILFIIVPIFLLLDKDDSKAGMEEDHTYEGLDIDQTATYEDIVTLRTGEVKWSVGEHPGQE

biological target: SARS-CoV-2 E; experiment: yeast fitness gain over the viral ORF with no human partner (scaled fitness); higher = more likely to interact
Procedure: (§1)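 Split mouse DHFR complementation in pooled diploid yeast: human ORFeome clones carry one fragment and viral ORFs the other; barcoded lineages compete in 1 µg/mL methotrexate and fitness is read by barcode sequencing in up to three cultures.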

Row | Binder | yeast fitness gain
1 | B1 | inactive: 0.0768
2 | B2 | inactive: 0.0344
3 | B3 | inactive: -0.0118

biological target: SARS-CoV-2 M; experiment: as above
Procedure: as §1

Row | Binder | yeast fitness gain
4 | B1 | inactive: 0.0613
5 | B2 | inactive: 0.0946
6 | B3 | inactive: 0.0219

biological target: SARS-CoV-2 N; experiment: as above
Procedure: as §1

Row | Binder | yeast fitness gain
7 | B1 | inactive: 0.0953
8 | B2 | inactive: -0.177
9 | B3 | inactive: -0.0617

biological target: SARS-CoV-2 NSP1; experiment: as above
Procedure: as §1

Row | Binder | yeast fitness gain
10 | B1 | inactive: 0.0734
11 | B2 | inactive: 0.0703
12 | B3 | inactive: 0.000399

biological target: SARS-CoV-2 NSP10; experiment: as above
Procedure: as §1

Row | Binder | yeast fitness gain
13 | B1 | inactive: -0.00507
14 | B2 | inactive: -0.119
15 | B3 | inactive: 0.0291

biological target: SARS-CoV-2 NSP12; experiment: as above
Procedure: as §1

Row | Binder | yeast fitness gain
16 | B1 | inactive: 0.124
17 | B2 | inactive: 0.0174
18 | B3 | inactive: 0.00813

biological target: SARS-CoV-2 NSP13; experiment: as above
Procedure: as §1

Row | Binder | yeast fitness gain
19 | B1 | inactive: -0.101
20 | B2 | inactive: 0.0452
21 | B3 | inactive: -0.00585

biological target: SARS-CoV-2 NSP15; experiment: as above
Procedure: as §1

Row | Binder | yeast fitness gain
22 | B1 | inactive: -0.148
23 | B2 | inactive: 0.0974
24 | B3 | inactive: 0.0129

biological target: SARS-CoV-2 NSP16; experiment: as above
Procedure: as §1

Row | Binder | yeast fitness gain
25 | B1 | inactive: 0.0635
26 | B2 | inactive: 0.00934
27 | B3 | inactive: 0.0491

biological target: SARS-CoV-2 NSP2; experiment: as above
Procedure: as §1

Row | Binder | yeast fitness gain
28 | B1 | inactive: -0.181
29 | B2 | inactive: -0.132
30 | B3 | inactive: -0.149

biological target: SARS-CoV-2 NSP4; experiment: as above
Procedure: as §1

Row | Binder | yeast fitness gain
31 | B1 | inactive: -0.367
32 | B2 | inactive: -0.0213
33 | B3 | inactive: -0.147

biological target: SARS-CoV-2 NSP5; experiment: as above
Procedure: as §1

Row | Binder | yeast fitness gain
34 | B1 | inactive: -0.0338
35 | B2 | inactive: -0.011
36 | B3 | inactive: 0.0254

biological target: SARS-CoV-2 NSP6; experiment: as above
Procedure: as §1

Row | Binder | yeast fitness gain
37 | B1 | inactive: 0.0513
38 | B2 | inactive: -0.0585
39 | B3 | inactive: 0.00633

biological target: SARS-CoV-2 NSP7; experiment: as above
Procedure: as §1

Row | Binder | yeast fitness gain
40 | B1 | inactive: -0.183
41 | B2 | inactive: -0.131
42 | B3 | inactive: -0.0255

biological target: SARS-CoV-2 NSP8; experiment: as above
Procedure: as §1

Row | Binder | yeast fitness gain
43 | B1 | inactive: 0.0095
44 | B2 | inactive: 0.0135
45 | B3 | inactive: -0.0356

biological target: SARS-CoV-2 NSP9; experiment: as above
Procedure: as §1

Row | Binder | yeast fitness gain
46 | B1 | inactive: -0.00822
47 | B2 | inactive: 0.0145
48 | B3 | inactive: 0.0343

biological target: SARS-CoV-2 ORF10; experiment: as above
Procedure: as §1

Row | Binder | yeast fitness gain
49 | B1 | inactive: -0.0306
50 | B2 | inactive: -0.00775
51 | B3 | inactive: 0.0312

biological target: SARS-CoV-2 ORF3A; experiment: as above
Procedure: as §1

Row | Binder | yeast fitness gain
52 | B1 | inactive: -0.0139
53 | B2 | inactive: 0.0112
54 | B3 | inactive: 0.0537

biological target: SARS-CoV-2 ORF3B; experiment: as above
Procedure: as §1

Row | Binder | yeast fitness gain
55 | B1 | inactive: 0.00874
56 | B2 | inactive: -0.0122
57 | B3 | inactive: 0.00528

biological target: SARS-CoV-2 ORF6; experiment: as above
Procedure: as §1

Row | Binder | yeast fitness gain
58 | B1 | inactive: 0.00464
59 | B2 | inactive: -0.0382
60 | B3 | inactive: 0.023

biological target: SARS-CoV-2 ORF7A; experiment: as above
Procedure: as §1

Row | Binder | yeast fitness gain
61 | B1 | inactive: 0.0255
62 | B2 | inactive: 0.0467
63 | B3 | inactive: 0.0741

biological target: SARS-CoV-2 ORF7B; experiment: as above
Procedure: as §1

Row | Binder | yeast fitness gain
64 | B1 | inactive: -0.0253
65 | B2 | inactive: 0.107
66 | B3 | inactive: -0.0653

biological target: SARS-CoV-2 ORF8; experiment: as above
Procedure: as §1

Row | Binder | yeast fitness gain
67 | B1 | inactive: 0.0497
68 | B2 | inactive: 0.0719
69 | B3 | inactive: -0.0172

biological target: SARS-CoV-2 ORF9B; experiment: as above
Procedure: as §1

Row | Binder | yeast fitness gain
70 | B1 | inactive: -0.00863
71 | B2 | inactive: 0.0318
72 | B3 | inactive: 0.000329

biological target: SARS-CoV-2 ORF9Bwu (the 73-codon ORF); experiment: as above
Procedure: as §1

Row | Binder | yeast fitness gain
73 | B1 | inactive: -0.137
74 | B2 | inactive: 0.0752
75 | B3 | inactive: 0.00348

biological target: SARS-CoV-2 S; experiment: as above
Procedure: as §1

Row | Binder | yeast fitness gain
76 | B1 | inactive: -0.0945
77 | B2 | inactive: 0.0506
78 | B3 | inactive: 0.0117

biological target: SARS-CoV-2 NSP14; experiment: as above
Procedure: as §1

Row | Binder | yeast fitness gain
79 | B2 | inactive: 0.0547
80 | B3 | inactive: 0.0149
